# Results reported in the supplement of paper PMC8728848.
# The other results are listed elsewhere or left out.
# Columns and labels:
# Assay in all cases: glycan array binding signal (z-score within array); higher = stronger binding
# Conditions in all cases: glycan notation: IUPAC condensed, linker removed
# [1] = molecular target: Neu5Ac(a2-3)Gal(b1-4)[Fuc(a1-3)]GlcNAc
# Method in brief: (§1)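 The binding signal is a Z-score computed within each array and averaged over linkers. Arrays of the same protein sequence at different concentrations or buffers were also averaged together. Data originate from 3228 arrays in the Consortium for Functional Glycomics database, kept only where the protein sequence was available.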
# [2] = molecular target: Neu5Ac(a2-3)Gal(b1-4)[Fuc(a1-3)]GlcNAc(b1-3)Gal
# Method in brief: as §1
# [3] = molecular target: Neu5Ac(a2-3)Gal(b1-4)[Fuc(a1-3)]GlcNAc(b1-3)Gal(b1-4)GlcNAc
# Method in brief: as §1
# [4] = molecular target: Neu5Ac(a2-3)Gal(b1-4)[Fuc(a1-3)]GlcNAc(b1-3)Gal(b1-4)[Fuc(a1-3)]GlcNAc(b1-3)Gal(b1-4)[Fuc(a1-3)]GlcNAc
# Method in brief: as §1
# [5] = molecular target: Neu5Ac(a2-3)Gal(b1-4)[Fuc(a1-3)]GlcNAc6S
# Method in brief: as §1
# [6] = molecular target: Neu5Ac(a2-3)Gal6S(b1-4)GlcNAc
# Method in brief: as §1
# [7] = molecular target: Neu5Ac(a2-3)Gal6S(b1-4)[Fuc(a1-3)]GlcNAc
# Method in brief: as §1
# [8] = molecular target: Neu5Ac(a2-3)GalNAc
# Method in brief: as §1
# [9] = molecular target: Neu5Ac(a2-3)GalNAc(b1-4)GlcNAc
# Method in brief: as §1
# [10] = molecular target: Neu5Ac(a2-3)[GalNAc(b1-4)]Gal(b1-4)Glc
# Method in brief: as §1
# [11] = molecular target: Neu5Ac(a2-3)[GalNAc(b1-4)]Gal(b1-4)GlcNAc
# Method in brief: as §1
# [12] = molecular target: Neu5Ac(a2-3)[Neu5Ac(a2-6)]GalNAc
# Method in brief: as §1
# [13] = molecular target: Neu5Ac(a2-6)Gal
# Method in brief: as §1
# [14] = molecular target: Neu5Ac(a2-6)Gal(b1-4)Glc
# Method in brief: as §1
# [15] = molecular target: Neu5Ac(a2-6)Gal(b1-4)GlcNAc
# Method in brief: as §1
# [16] = molecular target: Neu5Ac(a2-6)Gal(b1-4)GlcNAc(b1-2)Man(a1-3)[Neu5Ac(a2-6)Gal(b1-4)GlcNAc(b1-2)Man(a1-6)]Man(b1-4)GlcNAc(b1-4)GlcNAc
# Method in brief: as §1
# [17] = molecular target: Neu5Ac(a2-6)Gal(b1-4)GlcNAc(b1-3)Gal(b1-4)GlcNAc
# Method in brief: as §1
# [18] = molecular target: Neu5Ac(a2-6)Gal(b1-4)GlcNAc(b1-3)Gal(b1-4)[Fuc(a1-3)]GlcNAc(b1-3)Gal(b1-4)[Fuc(a1-3)]GlcNAc
# Method in brief: as §1
# [19] = molecular target: Neu5Ac(a2-6)Gal(b1-4)GlcNAc6S
# Method in brief: as §1
# [20] = molecular target: Neu5Ac(a2-6)GalNAc
# Method in brief: as §1
# [21] = molecular target: Neu5Ac(a2-6)GalNAc(b1-4)GlcNAc
# Method in brief: as §1
# [22] = molecular target: Neu5Ac(a2-8)Neu5Ac
# Method in brief: as §1
# [23] = molecular target: Neu5Ac(a2-8)Neu5Ac(a2-3)Gal(b1-4)Glc
# Method in brief: as §1
# [24] = molecular target: Neu5Ac(a2-8)Neu5Ac(a2-3)[GalNAc(b1-4)]Gal(b1-4)Glc
# Method in brief: as §1
# [25] = molecular target: Neu5Ac(a2-8)Neu5Ac(a2-8)Neu5Ac
# Method in brief: as §1
# [26] = molecular target: Neu5Ac(a2-8)Neu5Ac(a2-8)Neu5Ac(a2-3)Gal(b1-4)Glc
# Method in brief: as §1
# [27] = molecular target: Neu5Ac(a2-8)Neu5Ac(a2-8)Neu5Ac(a2-3)[GalNAc(b1-4)]Gal(b1-4)Glc
# Method in brief: as §1
# [28] = molecular target: Neu5Ac(a2-8)Neu5Ac(a2-8)Neu5Ac(a2-8)Neu5Ac(a2-3)[GalNAc(b1-4)]Gal(b1-4)Glc
# Method in brief: as §1
# [29] = molecular target: Neu5Ac(b1-6)GalNAc
# Method in brief: as §1
# [30] = molecular target: Neu5Ac(b2-6)Gal(b1-4)GlcNAc
# Method in brief: as §1
# [31] = molecular target: Neu5Ac9Ac(a2-6)Gal(b1-4)GlcNAc
# Method in brief: as §1
# [32] = molecular target: Neu5Gc(a2-3)Gal(b1-3)GlcNAc
# Method in brief: as §1
# [33] = molecular target: Neu5Gc(a2-3)Gal(b1-3)[Fuc(a1-4)]GlcNAc
# Method in brief: as §1
# [34] = molecular target: Neu5Gc(a2-3)Gal(b1-4)Glc
# Method in brief: as §1
# [35] = molecular target: Neu5Gc(a2-3)Gal(b1-4)GlcNAc
# Method in brief: as §1
# [36] = molecular target: Neu5Gc(a2-3)Gal(b1-4)[Fuc(a1-3)]GlcNAc
# Method in brief: as §1
# [37] = molecular target: Neu5Gc(a2-6)Gal(b1-4)GlcNAc
# Method in brief: as §1
# [38] = molecular target: Neu5Gc(a2-6)GalNAc
# Method in brief: as §1
binder,measurement,setting,value
"CLEC7A (Homo sapiens), Q9BXN2 (protein) MEYHPDLENLDEDGYTQLHFDSQSNTRIAVVSEKGSCAASPPWRLIAVILGILCLVILVIAVVLGTMAIWRSNSGSNTLENGYFLSRNKENHSQPTQSSLEDSVTPTKAVKTTGVLSSPCPPNWIIYEKSCYLFSMSLNSWDGSKRQCWQLGSNLLKIDSSNELGFIVKQVSSQPDNSFWIGLSRPQTEVPWLWEDGSTFSSNLFQIRTTATQENPSPNCVWIHVSVIYDQLCSVPSYSICEKKFSM",glycan array binding signal (z-score),[1],-0.505
same,glycan array binding signal (z-score),[2],0.695
same,glycan array binding signal (z-score),[3],-0.396
same,glycan array binding signal (z-score),[4],0.138
same,glycan array binding signal (z-score),[5],0.977
same,glycan array binding signal (z-score),[6],0.663
same,glycan array binding signal (z-score),[7],0.154
same,glycan array binding signal (z-score),[8],0.384
same,glycan array binding signal (z-score),[9],-1.15
same,glycan array binding signal (z-score),[10],-0.093
same,glycan array binding signal (z-score),[11],-0.239
same,glycan array binding signal (z-score),[12],0.984
same,glycan array binding signal (z-score),[13],-0.388
same,glycan array binding signal (z-score),[14],-0.718
same,glycan array binding signal (z-score),[15],-0.657
same,glycan array binding signal (z-score),[16],-0.3
same,glycan array binding signal (z-score),[17],-0.551
same,glycan array binding signal (z-score),[18],0.335
same,glycan array binding signal (z-score),[19],0.583
same,glycan array binding signal (z-score),[20],-0.247
same,glycan array binding signal (z-score),[21],-0.252
same,glycan array binding signal (z-score),[22],0.474
same,glycan array binding signal (z-score),[23],0.272
same,glycan array binding signal (z-score),[24],-0.536
same,glycan array binding signal (z-score),[25],4.19
same,glycan array binding signal (z-score),[26],1.53
same,glycan array binding signal (z-score),[27],0.344
same,glycan array binding signal (z-score),[28],0.416
same,glycan array binding signal (z-score),[29],-0.787
same,glycan array binding signal (z-score),[30],-0.223
same,glycan array binding signal (z-score),[31],-0.055
same,glycan array binding signal (z-score),[32],0.646
same,glycan array binding signal (z-score),[33],-0.912
same,glycan array binding signal (z-score),[34],-0.16
same,glycan array binding signal (z-score),[35],-0.68
same,glycan array binding signal (z-score),[36],0.771
same,glycan array binding signal (z-score),[37],-0.292
same,glycan array binding signal (z-score),[38],-0.113
